Laboratory results as given in PubChem BioAssay AID1347120 (National Center for Advancing Translational Sciences (NCATS), 2019).
About 930 (0.24%) of roughly 390,000 compounds were called active. The shares of active, inactive and inconclusive entries below differ from those in the screen. Calls follow the shape of the dose curve; as a rule, active = well fitted activation curve with a large enough effect; inconclusive = small, poorly fitted or top-dose-only effect; inactive = no such curve, though single readings can be large or run the other way. Where the call is inconclusive, the potency comes from a doubtful curve fit.

Assay: qHTS for Suppressors of FUS Proteinopathy: Primary screen using FUS-linked yeast assay; also: nearly all actives have a fitted effect of over 55% in size;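 as to growth rescue (activation): plate controls were DMSO vehicle for no effect and reference control for full effect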
Conditions: S. cerevisiae FUS-expressing, OD600, 24 h; Potency: growth rescue; growth rescue (activation): at 76.6 µM (top of the series)
Summary of the method: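 Yeast expressing FUS under galactose induction, OD 0.005 in 2% galactose medium; compounds in a dilution series, 24 h at 30C. Growth rescue by absorbance at 600 nm; CP55940 positive control, DMSO negative.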
Potency is read from the fitted curve at half-maximal effect; tags tell the direction and shape of the fitted curve.

Row | Structure (SMILES) | Potency | growth rescue (activation)
1 | COc1ccc(C(=O)Nc2cccc(OC(=O)c3ccc(C)c(C)c3)c2)cc1 | inconclusive: 1 µM [activator, full curve, poor fit] | –
2 | Cc1ccc(NC(=O)CC2Nc3ccccc3NC2=O)cc1Cl (stereo unspecified) | inconclusive: 39.8 µM [activator, single point] | –
3 | COc1cccc(OC)c1C(=O)NCc1ccco1 | inactive | –
4 | COc1cc(OC)c2c(-c3cccc(-c4ccc(O)cc4)c3)cc(=O)oc2c1 | inconclusive: 31.6 µM [activator, single point] | –
5 | CCCCOc1ccc(C(=O)NCC(=O)NNC(=O)C2COc3ccccc3O2)cc1 (stereo unspecified) | inconclusive: 31.6 µM [activator, single point] | –
6 | Cc1ccc2[nH]c(C(=O)NN=C3CCCCC3)c(-c3ccccc3)c2c1 | inconclusive: 25.1 µM [activator, single point] | –
7 | CCCCN(CCCC)C1=C(C(=O)c2ccccc2)N(CC)S(=O)(=O)c2ccccc21 | inactive | –
8 | Cc1ccc(-c2nc(-c3cc4cccc(OCc5cccc(F)c5)c4oc3=O)no2)cc1 | inactive | –
9 | O=c1oc2ccc(F)cc2cc1-c1nc(-c2cccs2)no1 | inactive | –
10 | CCC1(CC)C(=O)C2=C3C1[C@H](C(=O)OC)C=C(C(=O)OC)C[C@H]3[C@H]1C(=O)N(Cc3ccccc3)C(=O)[C@H]1[C@H]2C (stereo partly specified) | inconclusive: 28.2 µM [activator, partial curve, poor fit] | –
11 | CCn1c2c(c(=O)n3ncc(C(=O)Nc4ccc(F)cc4Cl)c13)CN(Cc1ccc(OC)cc1)CC2 | inconclusive: 25.1 µM [activator, single point] | –
12 | Cn1cc(C(=O)c2ccc(Cl)cc2Cl)cc1C(=O)N/N=C(\N)COc1ccc(F)cc1 | inconclusive: 28.2 µM [activator, single point] | –
13 | CC(=O)NC(c1cccc(F)c1)c1nc(-c2cccc(C(C)C)c2)cs1 (stereo unspecified) | inconclusive: 25.1 µM [activator, single point] | –
14 | COc1ccc(C(=O)OCC(=O)NCC2CCCO2)cc1 (stereo unspecified) | inactive | –
15 | O=C(NCC1CCN(Cc2ccccc2Cl)CC1)c1cc2ccc3cccnc3c2[nH]1 | inactive | –
16 | C[C@H](O)[C@@H]1CN2CCc3c([nH]c4ccc(-c5ccc6c(c5)OCO6)cc34)[C@@H]2C[C@@H]1N(C)C(=O)Nc1cc(Cl)cc(Cl)c1 | inconclusive: 50.1 µM [activator, single point] | –
17 | COc1ccccc1CNC(=O)CCc1c(C)nn(-c2ccc(N3CCCC3)nn2)c1C | inactive | –
18 | COc1ccc(Cl)cc1NC(=O)CN(C)C(=O)c1ccc(N2CCCCC2)c([N+](=O)[O-])c1 | inconclusive: 31.6 µM [activator, single point] | –
19 | COc1cc(C(C)=O)ccc1OCC(O)Cn1nc(C)c(Br)c1C (stereo unspecified) | inactive | –
20 | COC(=O)c1cc(S(=O)(=O)N2CCN(c3cc(C)ccc3C)CC2)c[nH]1 | inconclusive: 50.1 µM [activator, single point] | –
21 | Nc1cccc2c1C(=O)N(Cc1cccc(Cl)c1)C2=O | inactive | –
22 | C[C@@H]1O[C@@H](O[C@@H]2C(=O)c3c(O)cc(O)cc3O[C@H]2c2ccc(O)c(O)c2)[C@H](O)[C@H](O)[C@H]1O | inactive | –

Row | Structure (SMILES) | Potency | growth rescue (activation)
23 | C[C@H]1CN([C@@H](C)CO)C(=O)c2cccc(NS(=O)(=O)c3ccc(Cl)cc3)c2O[C@@H]1CN(C)CC1CCCCC1 | inconclusive: 22.4 µM [activator, partial curve] | –
24 | Cc1ccc(C)c(N2CCN(C(=O)Cn3c(C)c4cnn(-c5ccccc5)c(=O)c4c3C)CC2)c1 | inconclusive: 17.8 µM [activator, partial curve, poor fit] | –
25 | COc1ccc(/C=C2/C(=O)OCc3cc(OC)c(OC)cc32)cc1 | inactive | –
26 | O=C(CN1C(=O)C2C3C=CC(C3)C2C1=O)NCCc1ccccc1 (stereo unspecified) | inactive | –
27 | Cc1ccc(C(=O)N2CCc3cc(CNC(=O)c4ccnn4C)ccc32)cc1 | inactive | –
28 | CCC(=O)N[C@@H]1C[C@@H]2O[C@@H](CO)CC[C@@H]2O[C@@H]1CCc1ccc(-c2cccc(OC)c2)cc1 | inconclusive: 31.6 µM [activator, partial curve, poor fit] | –
29 | COc1c(OC(C)=O)ccc(/C=C/c2ccc3cccc(OC)c3n2)c1[N+](=O)[O-] | inconclusive: 50.1 µM [activator, single point] | –
30 | CC(C)(C)S(=O)N1Cc2cc(C(=O)NCc3ccc(Oc4ccccc4)cc3)nc(-c3cccc(-c4cc5ccccc5o4)c3)c2[C@H]1CCO (stereo partly specified) | inconclusive: 50.1 µM [activator, single point] | –
31 | CC1CCCN(S(=O)(=O)c2ccc(C(=O)Nc3nnc(-c4ccco4)o3)cc2)C1 (stereo unspecified) | inactive | –
32 | FC(F)(F)c1cnc(Nc2ccc(N3CCOCC3)cc2)c(Cl)c1 | inactive | –
33 | Cc1ccc(S(=O)(=O)NCC(=O)OCc2ccccc2)cc1 | inactive | –
34 | O=C1/C(=C/c2ccc(Cl)cc2)SC(=S)N1CCC(=O)N1CCCCC1CCO (stereo unspecified) | inactive | –
35 | CCOC(=O)C(=Cc1ccc(N(C)C)cc1)C(=O)c1ccccc1 | inactive | –
36 | COCCNC(=O)CCSc1nc(-c2ccc3c(c2)OCO3)cc(C(F)(F)F)n1 | inconclusive: 22.4 µM [activator, partial curve, poor fit] | –
37 | COc1ccccc1N1CCN(C(=O)c2cc(-c3ccc(F)cc3)[nH]c2C)CC1 | inconclusive: 31.6 µM [activator, single point] | –
38 | O=c1c2[nH]c3ccc(F)cc3c2ncn1CCCN1CCOCC1 | inactive | –
39 | COc1ccc(N(C(=O)c2ccc(Cl)cc2)S(=O)(=O)c2ccc(C)cc2)cc1 | inconclusive: 35.5 µM [activator, partial curve, poor fit] | –
40 | COc1ccc2c(C)cc(SCC#N)nc2c1 | inactive | –
41 | Cc1cccc(N2CCN(C(=O)CCC(=O)NNc3nc4ccccc4c4nc(C)nn34)CC2C)c1 (stereo unspecified) | inactive | –
42 | CCN(c1ccccc1)c1nc2ccsc2c(=O)s1 | inactive | –
43 | CCOC(=O)Cn1c(-c2cccnc2Cl)nc2cc(Cl)c(Cl)cc21 | inconclusive: 56.2 µM [activator, partial curve, poor fit] | –
44 | CCC1CCCCN1c1cc(C)nc2cc(-c3cccc(C)c3)nn12 (stereo unspecified) | inconclusive: 50.1 µM [activator, single point] | –

Row | Structure (SMILES) | Potency | growth rescue (activation)
45 | CC(=O)NC(Cc1ccccc1)C(=O)OCC(=O)c1ccc(Br)cc1 (stereo unspecified) | inconclusive: 11.2 µM [activator, single point] | –
46 | Cc1ccc(Cl)cc1N1CCN(C(=O)CCCn2c(=O)c3cccn3c3cccnc32)CC1 | inconclusive: 20 µM [activator, partial curve, poor fit] | –
47 | O=C(NC1CCCCC1)C(c1cccnc1)N(C(=O)CCl)c1ccccc1Cl (stereo unspecified) | inactive | –
48 | Cc1nc2cc(-c3cccc(F)c3)nn2c(C)c1CCC(=O)NC(C)c1ccc2c(c1)OCCO2 (stereo unspecified) | inconclusive: 28.2 µM [activator, single point] | –
49 | CCC(C)N1CCN(C(=O)C2CCN(S(=O)(=O)c3c(C)noc3/C=C/c3ccco3)CC2)CC1 (stereo unspecified) | inconclusive: 12.6 µM [activator, partial curve, poor fit] | –
50 | COc1cc(OC)cc(C(=O)N(Cc2nc(-c3cccc(C)c3)no2)C(C)C)c1 | inconclusive: 11.2 µM [activator, partial curve] | –
51 | COc1cc(C(=O)Nc2ccc(NC(=O)c3ccccc3Cl)nc2)cc(OC)c1OC | inactive | –
52 | ClCc1cc2ccccc2nc1Cl | inactive | –
53 | COc1ccc(Cl)cc1NC(=O)Cn1c(=O)n(CCCC(=O)NCCc2ccc(OC)c(OC)c2)c(=O)c2ccccc21 | inconclusive: 28.2 µM [activator, single point] | –
54 | Cc1ccc(-c2cc(C(F)F)n3ncc(C(=O)N4CCCCC4c4cccnc4)c3n2)cc1 (stereo unspecified) | inactive | –
55 | Cc1ccc(C2CC(c3cccc(Br)c3)Nc3nnnn32)cc1 (stereo unspecified) | inconclusive: 44.7 µM [activator, single point] | –
56 | COc1ccc(-c2csc(C(C#N)=C(O)CSc3nccn3C)n2)cc1OC | inconclusive: 44.7 µM [activator, single point] | –
57 | CCS(=O)(=O)c1nc(S(=O)(=O)c2ccc(C)cc2)c(NC(C)c2ccccc2)s1 (stereo unspecified) | inconclusive: 28.2 µM [activator, partial curve, poor fit] | –
58 | O=C(COc1ccc([N+](=O)[O-])cc1)NNC(=O)Nc1ccc([N+](=O)[O-])cc1 | – | inconclusive: -64.5% [activator]
59 | COc1ccc(N=C2S/C(=C\c3cc(C)n(C)c3C)C(=O)N2C)cc1 | inconclusive: 35.5 µM [activator, single point] | –
60 | N#C/C(=C/c1ccc(N2CCCCC2)o1)c1cccc(F)c1 | active: 31.6 µM | –
61 | Cc1[nH]n(-c2ccccc2)c(=O)c1C1(C(F)(F)F)C(=O)N(c2ccccc2)C2=C1C(=O)CC(C)(C)C2 (stereo unspecified) | active: 31.6 µM | –
62 | N#Cc1ccc(Cn2ccc3ccc(-c4ccc5ccn(Cc6ccccc6)c5c4)cc32)cc1 | inactive | –
63 | CCOC(=O)c1ccc(N2C(=O)c3n[nH]c(-c4cccs4)c3C2c2cccc(OC)c2)cc1 (stereo unspecified) | inconclusive: 44.7 µM [activator, single point] | –
64 | CN(C)S(=O)(=O)N(CC(=O)NCCSCc1cccc(Cl)c1)c1ccccc1 | inconclusive: 50.1 µM [activator, single point] | –
65 | Cc1ccc(S(=O)(=O)CCC(=O)OCC(=O)Nc2cccc(S(=O)(=O)N3CCCCC3)c2)cc1 | inconclusive: 35.5 µM [activator, single point] | –
66 | Oc1ccc(C[C@H]2CNC(=S)N2CC2CCCN2C[C@H](Cc2ccc(O)cc2)N2C[C@H](Cc3ccc(O)cc3)N(CC3CCCCC3)C2=S)cc1 (stereo partly specified) | inconclusive: 25.1 µM [activator, single point] | –
